In PMC6151265:
Results are given in words; binding and its absence hold for the method and conditions named. In cells and extracts the contact can be indirect. Some entries that bind do so weakly or less than the wild type. For some of these results: Sequences can lack the tags named with a protein. One block for each substance: values may come before it.

Protein sequences, listed by entry. Tags and fused reporters are not part of them.
UniProt Q9Y496: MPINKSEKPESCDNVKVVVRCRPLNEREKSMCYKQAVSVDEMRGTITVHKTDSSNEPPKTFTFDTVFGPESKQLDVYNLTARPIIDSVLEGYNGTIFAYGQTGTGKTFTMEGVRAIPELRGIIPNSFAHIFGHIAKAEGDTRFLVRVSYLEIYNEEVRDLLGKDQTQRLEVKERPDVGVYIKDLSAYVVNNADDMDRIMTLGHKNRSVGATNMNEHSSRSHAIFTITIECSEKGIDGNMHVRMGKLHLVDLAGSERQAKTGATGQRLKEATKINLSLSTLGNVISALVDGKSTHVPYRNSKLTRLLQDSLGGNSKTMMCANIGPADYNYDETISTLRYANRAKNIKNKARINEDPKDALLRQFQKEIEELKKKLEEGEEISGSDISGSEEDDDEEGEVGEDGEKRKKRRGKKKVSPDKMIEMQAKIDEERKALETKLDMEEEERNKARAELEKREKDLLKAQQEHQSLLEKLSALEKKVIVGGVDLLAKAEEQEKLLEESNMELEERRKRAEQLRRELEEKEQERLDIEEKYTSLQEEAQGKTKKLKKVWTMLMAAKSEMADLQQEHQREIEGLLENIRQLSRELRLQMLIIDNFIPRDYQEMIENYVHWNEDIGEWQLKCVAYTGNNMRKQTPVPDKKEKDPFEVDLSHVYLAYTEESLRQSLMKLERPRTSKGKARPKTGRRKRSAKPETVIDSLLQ
UniProt Q96T51: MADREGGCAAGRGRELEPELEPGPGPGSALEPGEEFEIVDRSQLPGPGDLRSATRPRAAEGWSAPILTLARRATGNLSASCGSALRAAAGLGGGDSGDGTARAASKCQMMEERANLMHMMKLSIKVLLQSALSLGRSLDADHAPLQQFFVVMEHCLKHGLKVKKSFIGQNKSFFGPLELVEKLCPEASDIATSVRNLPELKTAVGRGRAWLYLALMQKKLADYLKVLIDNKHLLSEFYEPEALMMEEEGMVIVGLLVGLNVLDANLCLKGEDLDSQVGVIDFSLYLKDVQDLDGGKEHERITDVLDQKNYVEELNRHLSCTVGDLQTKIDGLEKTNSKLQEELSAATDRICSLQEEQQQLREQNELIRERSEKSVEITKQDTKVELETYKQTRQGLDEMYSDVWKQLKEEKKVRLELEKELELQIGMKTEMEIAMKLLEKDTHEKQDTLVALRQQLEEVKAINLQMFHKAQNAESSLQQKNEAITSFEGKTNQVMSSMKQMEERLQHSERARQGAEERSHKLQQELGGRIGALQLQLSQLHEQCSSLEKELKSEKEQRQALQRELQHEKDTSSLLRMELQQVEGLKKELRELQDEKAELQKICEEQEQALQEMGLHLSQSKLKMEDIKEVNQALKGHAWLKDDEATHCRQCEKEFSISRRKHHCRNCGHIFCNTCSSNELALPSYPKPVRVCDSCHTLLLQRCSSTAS
UniProt P28741: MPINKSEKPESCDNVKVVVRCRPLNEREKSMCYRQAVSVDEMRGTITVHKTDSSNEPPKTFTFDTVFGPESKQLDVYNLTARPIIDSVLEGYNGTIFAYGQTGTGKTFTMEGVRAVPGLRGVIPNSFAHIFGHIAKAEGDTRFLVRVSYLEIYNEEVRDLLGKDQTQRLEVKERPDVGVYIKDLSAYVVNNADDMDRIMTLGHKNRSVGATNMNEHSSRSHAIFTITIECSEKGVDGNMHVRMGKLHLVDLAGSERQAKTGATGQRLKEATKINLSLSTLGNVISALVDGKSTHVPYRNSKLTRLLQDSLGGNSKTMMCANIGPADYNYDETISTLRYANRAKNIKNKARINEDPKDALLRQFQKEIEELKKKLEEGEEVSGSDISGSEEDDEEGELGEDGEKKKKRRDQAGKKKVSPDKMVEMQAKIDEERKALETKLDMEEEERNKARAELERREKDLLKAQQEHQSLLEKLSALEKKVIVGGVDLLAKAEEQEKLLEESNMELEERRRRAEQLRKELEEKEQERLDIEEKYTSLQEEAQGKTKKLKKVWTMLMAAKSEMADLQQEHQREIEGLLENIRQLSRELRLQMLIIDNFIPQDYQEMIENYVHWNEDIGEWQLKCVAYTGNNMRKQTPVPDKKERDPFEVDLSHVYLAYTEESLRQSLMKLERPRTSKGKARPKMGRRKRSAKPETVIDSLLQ

What was measured:
[1] = target: T1, Rab4 (endogenous, melanocytes) (mouse (endogenous in melan-Ink melanocytes)) (UniProt P56371); assay: co-IP; endogenous Rab4 from melan-Ink melanocyte lysate, anti-Rab4 antibody and Protein G–Sepharose 4B beads overnight at 4°C; immunoblotting
T1 sequence: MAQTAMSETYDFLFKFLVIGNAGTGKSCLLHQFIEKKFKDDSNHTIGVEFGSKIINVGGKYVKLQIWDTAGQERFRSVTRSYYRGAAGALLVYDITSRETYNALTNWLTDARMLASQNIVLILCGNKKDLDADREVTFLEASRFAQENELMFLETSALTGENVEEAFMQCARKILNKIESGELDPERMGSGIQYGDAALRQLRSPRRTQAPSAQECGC

Myc–KIF3A = Myc–KIF3A (UniProt Q9Y496); assay: co-IP; Myc-tagged bait expressed in HeLa cells, anti-Myc antibody and Protein G–Sepharose 4B beads overnight at 4°C; immunoblotting of endogenous partners
GFP–rabenosyn-5 = target: T2, GFP–rabenosyn-5 (UniProt Q9H1K0); assay: co-IP; GFP-tagged bait expressed in HeLa cells, lysate (20 mM HEPES pH7.4, 100 mM KCl, 10 mM MgCl2, 5 mM EDTA, 1% Triton X-100, 100 µM GTPγS) on GFP-Trap_A beads 4–5 h at 4°C; immunoblotting of endogenous partners
T2 sequence: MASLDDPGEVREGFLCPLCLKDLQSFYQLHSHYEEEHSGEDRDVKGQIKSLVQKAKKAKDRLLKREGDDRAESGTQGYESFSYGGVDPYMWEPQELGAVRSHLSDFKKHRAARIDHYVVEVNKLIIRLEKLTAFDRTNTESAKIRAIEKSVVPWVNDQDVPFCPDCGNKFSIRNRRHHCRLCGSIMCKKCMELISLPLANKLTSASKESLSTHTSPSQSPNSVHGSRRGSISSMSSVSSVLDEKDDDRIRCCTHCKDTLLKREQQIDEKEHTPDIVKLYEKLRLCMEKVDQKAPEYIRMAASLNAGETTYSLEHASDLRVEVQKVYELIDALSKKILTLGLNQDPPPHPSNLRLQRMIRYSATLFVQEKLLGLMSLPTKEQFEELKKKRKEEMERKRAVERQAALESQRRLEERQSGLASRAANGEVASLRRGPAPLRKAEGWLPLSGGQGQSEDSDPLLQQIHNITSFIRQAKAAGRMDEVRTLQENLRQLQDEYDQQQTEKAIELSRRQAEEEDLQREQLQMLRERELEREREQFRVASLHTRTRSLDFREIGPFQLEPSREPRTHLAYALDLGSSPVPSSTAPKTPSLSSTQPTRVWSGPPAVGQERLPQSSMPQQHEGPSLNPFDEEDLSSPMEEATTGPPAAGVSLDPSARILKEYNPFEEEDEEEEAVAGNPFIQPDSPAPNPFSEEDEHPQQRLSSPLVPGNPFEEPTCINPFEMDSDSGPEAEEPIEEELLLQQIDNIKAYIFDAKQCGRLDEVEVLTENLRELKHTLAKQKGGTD

GFP–Rabip4′ = GFP–Rabip4′ (UniProt Q96T51); assay: as above

- binding [1]: binds
Substance: KIF3A (endogenous, melanocytes) (from UniProt P28741 1-701)

- binding (Myc–KIF3A): no binding
Substance: Rabip4/4′ (endogenous, HeLa) (from UniProt Q96T51 1-708)

- binding (GFP–rabenosyn-5): binds
- binding (GFP–Rabip4′): no binding
Substance: KIF3A (endogenous, HeLa) (from UniProt Q9Y496 1-699)
